Data as given in paper PMC4336329 (PLoS ONE, 2015).
Among all 310,000 compounds or so, about 2,200 (0.71%) showed an effect of 50% or more. The effect is printed as a negative number. The list shows a part of the results.

biological target: human ether-à-go-go-related gene (hERG) potassium channel (human, UniProt Q12809); test: primary screen, population patch clamp on CHO cells stably expressing hERG
Sequence (Q12809 whole entry, looked up): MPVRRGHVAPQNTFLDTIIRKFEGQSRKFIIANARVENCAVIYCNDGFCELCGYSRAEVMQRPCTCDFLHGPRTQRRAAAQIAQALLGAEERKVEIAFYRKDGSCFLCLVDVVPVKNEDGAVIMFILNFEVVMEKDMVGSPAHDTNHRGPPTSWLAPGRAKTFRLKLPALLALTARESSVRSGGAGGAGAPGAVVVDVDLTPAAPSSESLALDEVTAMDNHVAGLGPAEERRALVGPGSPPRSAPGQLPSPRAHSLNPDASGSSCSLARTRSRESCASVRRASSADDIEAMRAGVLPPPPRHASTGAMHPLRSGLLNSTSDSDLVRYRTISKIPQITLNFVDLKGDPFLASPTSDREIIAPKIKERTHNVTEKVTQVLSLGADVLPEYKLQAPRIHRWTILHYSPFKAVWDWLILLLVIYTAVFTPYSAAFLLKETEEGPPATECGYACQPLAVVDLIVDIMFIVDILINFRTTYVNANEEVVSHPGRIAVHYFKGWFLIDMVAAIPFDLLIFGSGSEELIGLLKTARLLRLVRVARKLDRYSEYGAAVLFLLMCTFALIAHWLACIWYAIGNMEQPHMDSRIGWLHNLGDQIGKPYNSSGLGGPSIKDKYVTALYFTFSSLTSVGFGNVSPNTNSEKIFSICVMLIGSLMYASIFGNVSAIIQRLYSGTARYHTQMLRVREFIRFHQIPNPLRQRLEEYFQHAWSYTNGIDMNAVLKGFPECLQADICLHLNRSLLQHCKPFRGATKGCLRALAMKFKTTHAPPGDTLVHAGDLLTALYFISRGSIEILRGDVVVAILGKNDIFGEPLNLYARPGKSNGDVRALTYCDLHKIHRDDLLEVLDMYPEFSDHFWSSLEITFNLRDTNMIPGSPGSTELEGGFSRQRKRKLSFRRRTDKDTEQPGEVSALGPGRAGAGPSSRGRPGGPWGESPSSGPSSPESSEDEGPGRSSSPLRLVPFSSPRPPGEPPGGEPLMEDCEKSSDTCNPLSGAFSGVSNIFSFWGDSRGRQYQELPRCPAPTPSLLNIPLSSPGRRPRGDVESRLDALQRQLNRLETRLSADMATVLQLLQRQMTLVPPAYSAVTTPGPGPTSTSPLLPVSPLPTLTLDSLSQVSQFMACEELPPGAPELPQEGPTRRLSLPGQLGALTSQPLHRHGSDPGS

| Structure (SMILES) | hERG current change (%, negative = inhibition) at 1uM [%] |
| --- | --- |
| O=C(NC1CCCc2ccccc21)c1cn2ccccc2n1 (stereo not drawn) | -0.565 |
| COC(=O)Cn1ccc2cc(S(=O)(=O)N3CCCCCC3)ccc21 | 11.9 |
| CCNC(=O)C(=O)NCC1OCCCN1S(=O)(=O)c1cccs1 (stereo not drawn) | 4.08 |
| Cc1cc(N(C)C)c(C#N)c(NCc2ccccc2)n1 | 6.98 |
| COC(=O)CCCn1nc(NC(=O)COc2ccc(F)cc2)cc1C | -0.777 |
| O=C(OCc1c(F)cccc1Cl)c1cc([N+](=O)[O-])ccc1N1CCOCC1 | 10.8 |
| CCCCCC(=O)N1CCN(S(=O)(=O)c2ccc3c(c2)OCCCO3)CC1 | 8.75 |
| COc1ccc(S(=O)(=O)/C(C#N)=C/Nc2ccccc2F)cc1 | 2.97 |
| COc1cc(OC)c(-n2cc(-c3ccc(Cl)cc3)[nH]c2=O)cc1Cl | 11.4 |
| CC(=O)c1cccc(NC(=O)C2CCN(C(=O)c3cccs3)CC2)c1 | 5.97 |
| CCOc1ccc2nc(Cl)c(C3CC(c4ccco4)=NN3S(C)(=O)=O)cc2c1 (stereo not drawn) | -10.5 |
| CCC1CCCCN1C(=O)CSC1=NN2CCCC(=O)N=C2S1 (stereo not drawn) | 15.5 |
| Cc1nnc(SCCn2c(N3CCC(C)CC3)nc3c2c(=O)n(C)c(=O)n3C)s1 | 2.17 |
| CC1=C(C#N)C(NC(=O)c2ccccc2Cl)(C(F)(F)F)C(=O)N1 (stereo not drawn) | 2.66 |
| CC(C)C1Cc2c(sc3ncnc(NN)c23)CO1 (stereo not drawn) | 13.4 |
| O=c1cc[nH]c2cc(Cl)ccc12 | 10.5 |
| COc1ccc(/C=C/C(=O)c2ccc(Cl)s2)cc1O | 7.3 |
| CCCn1cc(S(=O)(=O)c2ccccc2)c(=O)c2cc(OCC)ccc21 | -0.252 |
| COc1ccc(NC(=O)C2CCCN(S(C)(=O)=O)C2)cc1OC (stereo not drawn) | 15.2 |
| CCOC(=O)C(CCSC)Nc1nc(Cl)nc(Nc2ccc(Cl)cc2)n1 (stereo not drawn) | 14.3 |
| O=CNCCCc1nc2ccccc2n1Cc1ccccc1 | -3.02 |
| COc1ccc(NC(=O)CS(=O)c2ccccc2Cl)cc1 (stereo not drawn) | 8.8 |
| CC(C)(CNC(=O)c1cc2ccccc2o1)N1CCOCC1 | 9.16 |

| Structure (SMILES) | hERG current change (%, negative = inhibition) at 1uM [%] |
| --- | --- |
| CC(C)c1ccccc1NC(=O)c1ccco1 | -10.2 |
| CC(=O)c1cccc(NC(=O)C2=CC(c3cccs3)=NS(=O)(=O)N2C)c1 | 12.7 |
| CC(C)(C)Sc1ccc([N+](=O)[O-])cc1C(=O)Nc1ccncc1 | 0.86 |
| O=C(OCC(=O)N1CCc2ccccc21)c1ccccc1 | 10.7 |
| Cc1ccc(CC(=O)Nc2nc3ccccc3s2)cc1 | 8.93 |
| O=C(COc1ccc(Br)cc1)NNC(=S)NC(=O)c1ccccc1[N+](=O)[O-] | 8.88 |
| CC(C)(C)c1ccc(Cn2nnc3c(=O)[nH]c(C4CCN(C(=O)Cc5cccs5)CC4)nc32)cc1 | 8.56 |
| CC1(C)CC(NC(=O)c2ccc(Br)o2)CC(C)(C)N1 | 14.5 |
| CC(=O)N(C)c1ccc(NC(=S)NC(=O)/C=C/c2ccco2)cc1 | 11.8 |
| CC(C)(C)C(=O)/C(=C\c1ccc([N+](=O)[O-])cc1)n1cncn1 | -6.21 |
| O=C(COC(=O)c1cccnc1Cl)NCc1ccc2c(c1)OCO2 | 10.4 |
| CCn1c(SCC(=O)Nc2cccc(NC(=O)c3cccs3)c2)nnc1-c1ccncc1 | 2.12 |
| O=C(CCCCn1c(=O)[nH]c2ccsc2c1=O)NCCc1ccccc1 | 9.26 |
| O=C1CSC(=S)N1c1cccc(Br)c1 | 13 |
| Nc1c(C(=O)N/N=C/c2cccnc2)oc2nc(-c3ccco3)cc(-c3ccco3)c12 | 14.6 |
| Cc1ccc(-c2nc(C#N)c(NCCc3ccccn3)o2)cc1 | -0.178 |
| CC(NC(=O)C(C)N1CCN(S(=O)(=O)c2ccccc2)CC1)c1ccccc1 (stereo not drawn) | 1.94 |
| COc1ccc(-c2ccc(SCC(=O)Nc3nccs3)nn2)cc1OC | 18.9 |
| CCOc1ccc(N2CC(C(=O)Nc3ccccn3)CC2=O)cc1 (stereo not drawn) | -5.75 |
| COc1ccc(-c2noc(CCCOc3ccc(Cl)cc3Cl)n2)cc1 | 13.7 |
| COc1ccc2c(c1)c(C(=O)O)c(C)n2CCc1ccc(OC)c(OC)c1 | 14.2 |
| COc1cccc(-n2nc(C(=O)O)c3ccccc3c2=O)c1 | 7.5 |
| Cc1sc2c(c1C)c(=O)nc1scc(CC(=O)O)n12 | 11.5 |

| Structure (SMILES) | hERG current change (%, negative = inhibition) at 1uM [%] |
| --- | --- |
| COc1ccc(OCc2nnc(SCC(=O)Nc3nnc(C4CC4)s3)n2C)cc1 | 14.2 |
| Cc1c(Cl)cccc1NC(=S)N/N=C/c1ccccc1Cl | 11.8 |
| COc1cccc(OC)c1OCCCN1CCC(Cc2ccccc2)CC1.O=C(O)C(=O)O | -79.3 |
| COc1ccc(NC(=O)NCCCN2CCN(c3ccccc3F)CC2)cc1 | -5 |
| CCc1cccc(NS(=O)(=O)c2ccc3c(c2)N(C)CCO3)c1 | 11 |
| CN(C1CCCCC1)S(=O)(=O)c1ccccc1 | 1.76 |
| CCN(CC)C(=O)CSc1nnc(-c2ccccc2)c(-c2ccccc2)n1 | 3 |
| CCN1C(=O)[C@H]2[C@@H](c3ccc(-c4ccc(F)cc4)cc3)N[C@@](Cc3ccccc3)(C(=O)OC)[C@H]2C1=O.O=C(O)C(F)(F)F | 3.85 |
| CCn1c(-c2cccnc2)n[nH]c1=S | 13.3 |
| Fc1ccc(CN2CCCCCCC2)cc1F | -15.2 |
| O=C(CN1CCN(c2ccccn2)CC1)Nc1ccc(Br)cc1 | -22.6 |
| CCOc1ncccc1C(=O)N(C)CC(=O)Nc1ccc(F)cc1 | 19.3 |
| O=C(CN1C(=O)/C(=C/c2ccccc2)SC1=S)Nc1cccnc1 | 9.4 |
| CC(C)NC(=O)COC(=O)c1ccc(Cl)c(S(N)(=O)=O)c1 | 14.3 |
| CCN(CC)C(=O)CSc1nc2ccccc2c(=O)n1OC(C)C | -7.43 |
| Cc1cc(C)cc(OCc2ccc(C(=O)NC3CCOC3=O)o2)c1 (stereo not drawn) | 6.57 |
| N#Cc1c(N)sc2c1CCN(CCc1ccccc1)C2 | -21.5 |
| O=C(O)[C@H](Cc1ccccc1)NC(=O)N1CCN(c2ccccc2)CC1 | 9.13 |
| CC1CCN(S(=O)(=O)c2ccc(C(=O)Nc3nnc(-c4ccco4)o3)cc2)CC1 | 5.06 |
| CN(NS(=O)(=O)c1ccc(Cl)cc1)c1nc(C(F)(F)F)nc2ccccc12 | 13.9 |
| Cc1nc2ccccc2nc1N/N=C/c1ccc(O)cc1 | 4.88 |
| C=CCO/N=C(/CCC)C1=C(N)CC(C)(C)CC1=O | 15 |
| CN(c1ccc(OCC(=O)Nc2nc(-c3ccccc3)cs2)cc1)S(=O)(=O)c1ccc(F)cc1 | 3.5 |

| Structure (SMILES) | hERG current change (%, negative = inhibition) at 1uM [%] |
| --- | --- |
| COc1cccc(OC)c1NC(=O)c1nc2c(nnn2Cc2ccccc2Cl)c(=O)[nH]1 | 5.65 |
| CCOC(=O)c1cnc2ncnn2c1N | 10.8 |
| O=C(NCCN1C(=O)C2C3C=CC(C3)C2C1=O)Nc1ccc(Br)cc1 (stereo not drawn) | -1.45 |
| O=C(/C=C/c1cccc(F)c1)NNC(=O)c1ccncc1 | 5.6 |
| N#Cc1ccccc1Sc1ccccc1C(=O)Nc1ccc2ccccc2c1 | 13.9 |
| COCCNC(=O)c1ccc(CS(=O)(=O)c2ccccc2)o1 | -2.09 |
| CCC(C)c1ccc(OCC(=O)Nc2cccc(C(=O)Nc3ccc(C(=O)O)cc3)c2)cc1 (stereo not drawn) | 2.39 |
| CCOC(=O)C1=C(N)n2c(s/c(=C\c3ccncc3)c2=O)=C(C(=O)OCC)C1c1ccncc1 (stereo not drawn) | 23 |
| Nc1c(C(=O)Nc2ccc3c(c2)OCCO3)nnn1Cc1ccc(Br)cc1 | 3.21 |
| CCC(C)NC(=O)c1ccc(C2SCC(=O)N2Cc2ccccc2)cc1 (stereo not drawn) | 10.5 |
| Cc1nn(Cc2ccc(F)cc2)c(C)c1NC(=O)c1nn(C)cc1Cl | -21.4 |
| COc1cc(CN(C)CC2CCCN(CCc3cccc(C(F)(F)F)c3)C2)ccc1O (stereo not drawn) | 2.96 |
| CC(=O)Nc1ccc(NC(=O)CCn2cnnn2)cc1 | 12.5 |
| Cc1cc(C(=O)NCCc2ccc(S(N)(=O)=O)cc2)c(C)o1 | 11.6 |
| CN1C(=O)CC(N2CCN(CC(=O)N3CCCC3)CC2)C1=O (stereo not drawn) | 3.59 |
| COc1ccc(C(C)=O)cc1CSc1nnc(SCc2cc(C(C)=O)ccc2OC)s1 | 14.1 |
| CC1CC(C)CN(c2ncnc3c2cnn3-c2ccc(Cl)cc2)C1 (stereo not drawn) | 4.48 |
| COc1cccc(CN2CC(C(=O)NCCc3ccc(C)o3)CCC2=O)c1 (stereo not drawn) | 6.56 |
| C=CCN1C(=O)/C(=C/c2cccs2)S/C1=N\S(=O)(=O)c1ccc(F)cc1 | 9.5 |
| Cc1cc(=O)oc2ccc(OC(=O)CN3C(=O)c4cccc([N+](=O)[O-])c4C3=O)cc12 | 4.36 |
| O=C(O)CCCc1ccc2c(c1)CCc1ccccc1-2 | 11.3 |
